# Test results: the supplement of paper PMC8728848
# The list shows a part of the results.
# B1: PX14379A-bvu-539-28-539 (Bacteroides vulgatus) (protein)
# chain: EPYSEIIEEDYVPTEADEIALLATTYSQLRFVMDWYGLFDLQEESGDVIVTPTRPNGWDDGGTYKQMHKHTWDNQQGQPQSIWDYCYKGIANANKILKRADEGFFTEESKPKVVAEVKGVRALWYSILCDTHGNIPIQTSFSEEVPVQSTRKQVFDFIINELKEVMPNLPTEVNKSTYGRLTQWGAKCLMARMYLNAGVYTGTPMWNECLEQCNDIINSGLFSLETNYTDIFKTENSGCVETIFAIPYDEVYNEGDNNGPVFGAHMKFLSSNSRKVFNMQTTPWGGSAANPQFINSYDPDDMRLKYTWLQGDQYSPDGVLITTFPNKLPSIYKTDTDDGYRVGKYEIKVGAKSLLSNDFPYFRYTEVLLMKAECLLRLGQNETEAAHIVSQIRERAFRESAHPEKATVDAAWLKGDTHINYGTLDEKGQIDDAGNTEVVELGGLYDEWGWEFAAEARRRTDMIRFGTYQKKSWFNHTPTANDLNGNSILFPIHLDHLNTNPNLQQNPGYAGK
# How the values were obtained:
# Test in all cases: glycan array binding signal (z-score within array); higher = stronger binding
# Conditions in all cases: glycan notation: IUPAC condensed, linker removed
# [1] = target: GlcNAc(a1-4)Gal(b1-3)GlcNAc
# Summary of the method: (§1)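 The binding signal is a Z-score computed within each array and averaged over linkers. Arrays of the same protein sequence at different concentrations or buffers were also averaged together. Data originate from 3228 arrays in the Consortium for Functional Glycomics database, kept only where the protein sequence was available.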
# [2] = target: GlcNAc(a1-4)Gal(b1-4)GalNAc
# Summary of the method: as §1
# [3] = target: GlcNAc(a1-4)Gal(b1-4)GlcNAc
# Summary of the method: as §1
# [4] = target: GlcNAc(a1-4)Gal(b1-4)GlcNAc(b1-3)Gal(b1-4)Glc
# Summary of the method: as §1
# [5] = target: GlcNAc(a1-4)Gal(b1-4)GlcNAc(b1-3)Gal(b1-4)GlcNAc
# Summary of the method: as §1
# [6] = target: GlcNAc(a1-4)Gal(b1-4)GlcNAc(b1-3)Gal(b1-4)GlcNAc(b1-3)Gal(b1-4)GlcNAc
# Summary of the method: as §1
# [7] = target: GlcNAc(a1-4)Gal(b1-4)GlcNAc(b1-3)Gal(b1-4)[Fuc(a1-3)]GlcNAc(b1-3)Gal(b1-4)[Fuc(a1-3)]GlcNAc
# Summary of the method: as §1
# [8] = target: GlcNAc(a1-6)Gal(b1-4)GlcNAc
# Summary of the method: as §1
# [9] = target: GlcNAc(b1-2)Gal(b1-3)GalNAc
# Summary of the method: as §1
# [10] = target: GlcNAc(b1-2)Man(a1-3)[GlcNAc(b1-2)Man(a1-6)]Man(b1-4)GlcNAc(b1-4)GlcNAc
# Summary of the method: as §1
# [11] = target: GlcNAc(b1-2)Man(a1-3)[GlcNAc(b1-2)Man(a1-6)]Man(b1-4)GlcNAc(b1-4)[Fuc(a1-6)]GlcNAc
# Summary of the method: as §1
# [12] = target: GlcNAc(b1-2)Man(a1-3)[GlcNAc(b1-4)][GlcNAc(b1-2)Man(a1-6)]Man(b1-4)GlcNAc(b1-4)GlcNAc
# Summary of the method: as §1
# [13] = target: GlcNAc(b1-2)Man(a1-3)[GlcNAc(b1-4)][GlcNAc(b1-2)Man(a1-6)]Man(b1-4)GlcNAc(b1-4)[Fuc(a1-6)]GlcNAc
# Summary of the method: as §1
# [14] = target: GlcNAc(b1-2)[GlcNAc(b1-4)]Man(a1-3)[GlcNAc(b1-2)Man(a1-6)]Man(b1-4)GlcNAc(b1-4)GlcNAc
# Summary of the method: as §1
# [15] = target: GlcNAc(b1-2)[GlcNAc(b1-4)]Man(a1-3)[GlcNAc(b1-4)][GlcNAc(b1-2)Man(a1-6)]Man(b1-4)GlcNAc(b1-4)GlcNAc
# Summary of the method: as §1
# [16] = target: GlcNAc(b1-2)[GlcNAc(b1-4)]Man(a1-3)[GlcNAc(b1-4)][GlcNAc(b1-2)[GlcNAc(b1-6)]Man(a1-6)]Man(b1-4)GlcNAc(b1-4)GlcNAc
# Summary of the method: as §1
# [17] = target: GlcNAc(b1-2)[GlcNAc(b1-4)]Man(a1-3)[GlcNAc(b1-4)][GlcNAc(b1-2)[GlcNAc(b1-6)]Man(a1-6)]Man(b1-4)GlcNAc(b1-4)[Fuc(a1-6)]GlcNAc
# Summary of the method: as §1
# [18] = target: GlcNAc(b1-2)[GlcNAc(b1-6)]Man(a1-6)[GlcNAc(b1-2)Man(a1-3)]Man(b1-4)GlcNAc(b1-4)GlcNAc
# Summary of the method: as §1
# [19] = target: GlcNAc(b1-2)[GlcNAc(b1-6)]Man(a1-6)[GlcNAc(b1-2)Man(a1-3)]Man(b1-4)GlcNAc(b1-4)[Fuc(a1-6)]GlcNAc
# Summary of the method: as §1
# [20] = target: GlcNAc(b1-2)[GlcNAc(b1-6)]Man(a1-6)[GlcNAc(b1-4)][GlcNAc(b1-2)Man(a1-3)]Man(b1-4)GlcNAc(b1-4)GlcNAc
# Summary of the method: as §1
# [21] = target: GlcNAc(b1-3)Fuc
# Summary of the method: as §1
# [22] = target: GlcNAc(b1-3)Gal
# Summary of the method: as §1
# [23] = target: GlcNAc(b1-3)Gal(b1-3)GalNAc
# Summary of the method: as §1
# [24] = target: GlcNAc(b1-3)Gal(b1-4)Glc
# Summary of the method: as §1
# [25] = target: GlcNAc(b1-3)Gal(b1-4)GlcNAc
# Summary of the method: as §1
# [26] = target: GlcNAc(b1-3)Gal(b1-4)GlcNAc(b1-2)Man(a1-3)[GlcNAc(b1-3)Gal(b1-4)GlcNAc(b1-2)Man(a1-6)]Man(b1-4)GlcNAc(b1-4)GlcNAc
# Summary of the method: as §1
# [27] = target: GlcNAc(b1-3)Gal(b1-4)GlcNAc(b1-2)Man(a1-3)[GlcNAc(b1-3)Gal(b1-4)GlcNAc(b1-2)Man(a1-6)]Man(b1-4)GlcNAc(b1-4)[Fuc(a1-6)]GlcNAc
# Summary of the method: as §1
# [28] = target: GlcNAc(b1-3)Gal(b1-4)GlcNAc(b1-2)[GlcNAc(b1-3)Gal(b1-4)GlcNAc(b1-6)]Man(a1-6)[GlcNAc(b1-3)Gal(b1-4)GlcNAc(b1-2)Man(a1-3)]Man(b1-4)GlcNAc(b1-4)GlcNAc
# Summary of the method: as §1
# [29] = target: GlcNAc(b1-3)Gal(b1-4)GlcNAc(b1-3)Gal(b1-4)GlcNAc
# Summary of the method: as §1
# [30] = target: GlcNAc(b1-3)Gal(b1-4)GlcNAc(b1-3)Gal(b1-4)GlcNAc(b1-2)Man(a1-3)[GlcNAc(b1-3)Gal(b1-4)GlcNAc(b1-3)Gal(b1-4)GlcNAc(b1-2)Man(a1-6)]Man(b1-4)GlcNAc(b1-4)GlcNAc
# Summary of the method: as §1
# [31] = target: GlcNAc(b1-3)Gal(b1-4)GlcNAc(b1-3)Gal(b1-4)GlcNAc(b1-2)Man(a1-3)[GlcNAc(b1-3)Gal(b1-4)GlcNAc(b1-3)Gal(b1-4)GlcNAc(b1-2)Man(a1-6)]Man(b1-4)GlcNAc(b1-4)[Fuc(a1-6)]GlcNAc
# Summary of the method: as §1
# [32] = target: GlcNAc(b1-3)Gal(b1-4)GlcNAc(b1-3)Gal(b1-4)GlcNAc(b1-2)[GlcNAc(b1-3)Gal(b1-4)GlcNAc(b1-3)Gal(b1-4)GlcNAc(b1-6)]Man(a1-6)[GlcNAc(b1-3)Gal(b1-4)GlcNAc(b1-3)Gal(b1-4)GlcNAc(b1-2)Man(a1-3)]Man(b1-4)GlcNAc(b1-4)[Fuc(a1-6)]GlcNAc
# Summary of the method: as §1
# [33] = target: GlcNAc(b1-3)Gal(b1-4)GlcNAc(b1-3)Gal(b1-4)GlcNAc(b1-3)Gal(b1-4)GlcNAc(b1-2)Man(a1-3)[GlcNAc(b1-3)Gal(b1-4)GlcNAc(b1-3)Gal(b1-4)GlcNAc(b1-3)Gal(b1-4)GlcNAc(b1-2)Man(a1-6)]Man(b1-4)GlcNAc(b1-4)GlcNAc
# Summary of the method: as §1
# [34] = target: GlcNAc(b1-3)Gal(b1-4)GlcNAc(b1-3)Gal(b1-4)GlcNAc(b1-3)Gal(b1-4)GlcNAc(b1-2)Man(a1-3)[GlcNAc(b1-3)Gal(b1-4)GlcNAc(b1-3)Gal(b1-4)GlcNAc(b1-3)Gal(b1-4)GlcNAc(b1-2)Man(a1-6)]Man(b1-4)GlcNAc(b1-4)[Fuc(a1-6)]GlcNAc
# Summary of the method: as §1
# [35] = target: GlcNAc(b1-3)Gal(b1-4)GlcNAc(b1-3)Gal(b1-4)GlcNAc(b1-3)Gal(b1-4)GlcNAc(b1-2)[GlcNAc(b1-3)Gal(b1-4)GlcNAc(b1-3)Gal(b1-4)GlcNAc(b1-3)Gal(b1-4)GlcNAc(b1-6)]Man(a1-6)[GlcNAc(b1-3)Gal(b1-4)GlcNAc(b1-3)Gal(b1-4)GlcNAc(b1-3)Gal(b1-4)GlcNAc(b1-2)Man(a1-3)]Man(b1-4)GlcNAc(b1-4)[Fuc(a1-6)]GlcNAc
# Summary of the method: as §1
# [36] = target: GlcNAc(b1-3)Gal(b1-4)GlcNAc(b1-3)Gal(b1-4)GlcNAc(b1-3)Gal(b1-4)GlcNAc(b1-3)Gal(b1-4)GlcNAc(b1-2)Man(a1-3)[GlcNAc(b1-3)Gal(b1-4)GlcNAc(b1-3)Gal(b1-4)GlcNAc(b1-3)Gal(b1-4)GlcNAc(b1-3)Gal(b1-4)GlcNAc(b1-2)Man(a1-6)]Man(b1-4)GlcNAc(b1-4)GlcNAc
# Summary of the method: as §1
# [37] = target: GlcNAc(b1-3)Gal(b1-4)GlcNAc(b1-3)Gal(b1-4)GlcNAc(b1-3)Gal(b1-4)GlcNAc(b1-3)Gal(b1-4)GlcNAc(b1-2)Man(a1-3)[GlcNAc(b1-3)Gal(b1-4)GlcNAc(b1-3)Gal(b1-4)GlcNAc(b1-3)Gal(b1-4)GlcNAc(b1-3)Gal(b1-4)GlcNAc(b1-2)Man(a1-6)]Man(b1-4)GlcNAc(b1-4)[Fuc(a1-6)]GlcNAc
# Summary of the method: as §1
# [38] = target: GlcNAc(b1-3)Gal(b1-4)GlcNAc(b1-3)Gal(b1-4)GlcNAc(b1-3)Gal(b1-4)GlcNAc(b1-3)Gal(b1-4)GlcNAc(b1-2)[GlcNAc(b1-3)Gal(b1-4)GlcNAc(b1-3)Gal(b1-4)GlcNAc(b1-3)Gal(b1-4)GlcNAc(b1-3)Gal(b1-4)GlcNAc(b1-6)]Man(a1-6)[GlcNAc(b1-3)Gal(b1-4)GlcNAc(b1-3)Gal(b1-4)GlcNAc(b1-3)Gal(b1-4)GlcNAc(b1-3)Gal(b1-4)GlcNAc(b1-2)Man(a1-3)]Man(b1-4)GlcNAc(b1-4)[Fuc(a1-6)]GlcNAc
# Summary of the method: as §1
binder,measurement,setting,value
B1,glycan array binding signal (z-score),[1],-0.151
same,glycan array binding signal (z-score),[2],-0.451
same,glycan array binding signal (z-score),[3],-0.238
same,glycan array binding signal (z-score),[4],-0.444
same,glycan array binding signal (z-score),[5],-0.358
same,glycan array binding signal (z-score),[6],-0.277
same,glycan array binding signal (z-score),[7],0.057
same,glycan array binding signal (z-score),[8],-0.313
same,glycan array binding signal (z-score),[9],-0.228
same,glycan array binding signal (z-score),[10],-0.32
same,glycan array binding signal (z-score),[11],-0.089
same,glycan array binding signal (z-score),[12],-0.315
same,glycan array binding signal (z-score),[13],-0.404
same,glycan array binding signal (z-score),[14],-0.48
same,glycan array binding signal (z-score),[15],-0.252
same,glycan array binding signal (z-score),[16],-0.493
same,glycan array binding signal (z-score),[17],-0.268
same,glycan array binding signal (z-score),[18],-0.233
same,glycan array binding signal (z-score),[19],-0.294
same,glycan array binding signal (z-score),[20],-0.158
same,glycan array binding signal (z-score),[21],-0.23
same,glycan array binding signal (z-score),[22],-0.266
same,glycan array binding signal (z-score),[23],-0.27
same,glycan array binding signal (z-score),[24],-0.32
same,glycan array binding signal (z-score),[25],-0.337
same,glycan array binding signal (z-score),[26],-0.12
same,glycan array binding signal (z-score),[27],-0.419
same,glycan array binding signal (z-score),[28],0.18
same,glycan array binding signal (z-score),[29],-0.297
same,glycan array binding signal (z-score),[30],1.08
same,glycan array binding signal (z-score),[31],0.202
same,glycan array binding signal (z-score),[32],-0.38
same,glycan array binding signal (z-score),[33],-0.121
same,glycan array binding signal (z-score),[34],0.526
same,glycan array binding signal (z-score),[35],-0.29
same,glycan array binding signal (z-score),[36],-0.11
same,glycan array binding signal (z-score),[37],3.83
same,glycan array binding signal (z-score),[38],0.006
